Test results taken from PubChem BioAssay AID504832 (National Center for Advancing Translational Sciences (NCATS), 2011).
Among all 310,000 compounds or so, about 18,000 (5.8%) were called active. Inconclusive results, whose numbers are uncertain, are shown with a selection of clear calls. Calls come from the whole dose curve; as a rule, active = well fitted inhibition curve with a large enough effect; inconclusive = small, poorly fitted or top-dose-only effect, or another doubt; inactive = no such curve, though single readings can be large or run the other way. No potency is given beside an inconclusive call; the fits are too rough.

Experiment: Primary qHTS for delayed death inhibitors of the malarial parasite plastid, 48 hour incubation
Conditions: P. falciparum luciferase growth in erythrocytes; series mostly up to 28.7 µM; activity change, negative = inhibition: at the top concentration
Summary of the method: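 Luciferase-expressing P. falciparum in infected erythrocytes (2% hematocrit, 0.1% parasitemia final) in RPMI 1640/0.5% Albumax were exposed to compound for 48 hours at 37 C, 5% CO2; growth read as luminescence.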
% is set by controls: 0 for no effect and ±100 for the full control effect; potency is the fitted concentration of half-maximal effect; tags give direction and shape of the fitted curve.

SMILES	Potency	activity change, negative = inhibition
CCCCNC(C(=O)Nc1ccc(Cl)c([N+](=O)[O-])c1)c1ccccc1 (stereo not given)	inconclusive [inhibitor, single point]	–
Cc1cc(C)c(CN2CCC(N3CCC(C(=O)NCC4CCCO4)CC3)CC2)cc1C (stereo not given)	inconclusive [inhibitor, partial curve, poor fit]	–
COc1cc(NC(=O)CN2C(=O)NC3(CCOc4ccccc43)C2=O)cc(OC)c1 (stereo not given)	inconclusive [inhibitor, single point]	–
NS(=O)(=O)c1ccc(CCNS(=O)(=O)c2ccccc2)cc1	–	inactive: 16.1%
CC(=O)Nc1ccc(C(=O)Nc2ccc(S(=O)(=O)N3CCCCC3)cc2)cc1	inconclusive [inhibitor, partial curve, poor fit]	–
Nc1nc(-c2ccco2)nn1S(=O)(=O)c1ccccc1	–	inactive: -7.32%
CC(C)(C)NC(=O)c1ccccc1NC(=O)c1ccc2c(c1)OCO2	–	inactive: 0%
CCn1nnnc1SCC(=O)c1ccc(C)cc1	–	inactive: 122%
COc1ccc(Cl)cc1C(=O)Nn1cnc2ccccc2c1=O	–	inactive: 42.5%
CCC12CN(C(=O)c3ccco3)CC(CC)(CN(C(=O)c3ccco3)C1)C2=O	inconclusive [inhibitor, single point]	–
O=C(c1cc2cc(Cl)ccc2[nH]1)N1CCN(c2ccccn2)CC1	–	inactive: 2.32%
CN(CC(=O)N1CCN(Cc2ccccc2)CC1)S(=O)(=O)c1ccc(Br)cc1	inconclusive [inhibitor, full curve, poor fit]	–
CC1(C)c2ssc(=S)c2-c2ccccc2N1C(=O)c1ccco1	inconclusive [inhibitor, full curve]	–
O=C(Nc1ccccc1)C1CCN(C(=O)c2ccc(Br)cc2)CC1	–	inactive: -23.3%
CC(NC(=O)CSc1nc2ccccc2c(=O)n1CCCO)c1ccccc1 (stereo not given)	inconclusive [inhibitor, partial curve, poor fit]	–
O=C(/C=C/c1ccc(S(=O)(=O)NCc2ccco2)cc1)N1CCN(c2ccccc2)CC1	inconclusive [inhibitor, partial curve]	–
Cc1nnsc1SCCNC(=O)Nc1ccc(Cl)cc1	inconclusive [inhibitor, single point]	–
C/C(=N\NC(=O)CNC(=O)c1ccccc1F)c1ccco1	–	inactive: 39.4%
COc1cc(NC(=O)CSc2nnc3ccccn23)cc(OC)c1	–	inactive: -27.5%
CCOC(=O)N1CCN(C(=O)CSc2nc3c([nH]c4ccccc43)c(=O)n2CC)CC1	inconclusive [inhibitor, single point]	–
COc1ccc(Nc2sc(C(=O)c3ccc(Cl)cc3)c(N)c2C(=O)Nc2ccccc2OC)cc1	active: 10.4 µM	–
CCOc1ccc(CSC(=N)N)cc1Cl	inconclusive [inhibitor, single point]	–
CC1Cc2ccccc2N1C(=O)CCn1c(=O)sc2ccccc21 (stereo not given)	inconclusive [inhibitor, partial curve, poor fit]	–

SMILES	Potency	activity change, negative = inhibition
COc1cccc(CC2(CO)CCN(S(=O)(=O)N(C)C)CC2)c1	–	inactive: 13.6%
COc1cc(NC2c3ccccc3C(=O)N2Cc2ccccc2)cc(OC)c1OC (stereo not given)	inconclusive [inhibitor, single point]	–
CCCCCc1cc(=O)oc2c(C(CCN3CCCC(C)C3)c3ccc4c(c3)OCO4)c(OC)cc(OC)c12 (stereo not given)	active: 7.38 µM	–
CCCn1c(CN2CCN(C(=O)OCC)CC2)nc2cc(NC(=O)CC)ccc21	inconclusive [inhibitor, partial curve]	–
Cc1cc(C)nc(N/N=C/c2ccco2)n1	–	inactive: 30.6%
CCOC(=O)c1c(NC(=O)CN(C)C)sc(C(=O)N(CC)CC)c1C	inconclusive [inhibitor, single point]	–
CSCCC(NC(=O)COc1ccccc1)C(=O)N1CCN(c2ccccc2Cl)CC1 (stereo not given)	inconclusive [inhibitor, single point]	–
O=C(c1cccnc1)N1c2ccccc2Sc2ccccc21	inconclusive [inhibitor, full curve, poor fit]	–
CCCNC(=O)c1cn(CC)c2cc(N3CCN(C(=O)c4ccco4)CC3)c(F)cc2c1=O	inconclusive [inhibitor, full curve]	–
CCCOc1cccc(C(=O)Nc2cc(NC(=O)c3ccco3)ccc2OC)c1	inconclusive [inhibitor, single point]	–
COc1cc(/C=C/c2nc3ccccc3c(=O)n2-c2ccccc2O)ccc1O	active: 9.28 µM	–
OC(COc1ccccc1)CN1C2=NCCCN2c2ccccc21 (stereo not given)	inconclusive [inhibitor, single point]	–
Cc1ccc(-n2c(O)c(C=NC3CCS(=O)(=O)C3)c3ccccc3c2=O)c(C)c1 (stereo not given)	inconclusive [inhibitor, single point]	–
CC(C)(C)OC(=O)N1CCC[C@H]1c1nnc(SCc2ccc(Cl)cc2Cl)o1	inconclusive [inhibitor, single point]	–
Cc1cccc(NC(=O)N(Cc2cc3cc(C)ccc3[nH]c2=O)CC2COCCO2)c1 (stereo not given)	inconclusive [inhibitor, single point]	–
C=CCc1cccc(/C=N/NC(=O)CNc2cccc3ccccc23)c1O	–	inactive: 30.2%
O=C1CCCN1c1ccc(S(=O)(=O)N2CCC(c3ccccc3)CC2)cc1	inconclusive [inhibitor, partial curve, poor fit]	–
CCOC(=O)c1cc(C#N)c(N2CCCNCC2)nc1C(F)(F)F	–	inactive: -29.6%
O=C(O)CCCNc1cc(N2CCN(C(=O)c3ccco3)CC2)c2noc3c2c1C(=O)c1ccccc1-3	inconclusive [inhibitor, single point]	–
O=c1c(O)cccc2cc(O)c(O)c(O)c12	–	inactive: 8.68%
Clc1ccccc1Cn1c(/C=C/c2ccco2)nc2ccccc21	inconclusive [inhibitor, single point]	–
COc1cc(Cl)ccc1OCc1cc(C(=O)NCCCN2CCCC2=O)no1	inconclusive [inhibitor, partial curve, poor fit]	–
